Results on 72 sequences are retold here after publication PMC10726135.

Some of the results follow. At the low end of the ranking the order means little. Measured with an extract: partners may take part in the binding.

This experiment has as its target T1, HNF4alpha2 (COS-7 nuclear extract) (UniProt P41235).
T1 sequence: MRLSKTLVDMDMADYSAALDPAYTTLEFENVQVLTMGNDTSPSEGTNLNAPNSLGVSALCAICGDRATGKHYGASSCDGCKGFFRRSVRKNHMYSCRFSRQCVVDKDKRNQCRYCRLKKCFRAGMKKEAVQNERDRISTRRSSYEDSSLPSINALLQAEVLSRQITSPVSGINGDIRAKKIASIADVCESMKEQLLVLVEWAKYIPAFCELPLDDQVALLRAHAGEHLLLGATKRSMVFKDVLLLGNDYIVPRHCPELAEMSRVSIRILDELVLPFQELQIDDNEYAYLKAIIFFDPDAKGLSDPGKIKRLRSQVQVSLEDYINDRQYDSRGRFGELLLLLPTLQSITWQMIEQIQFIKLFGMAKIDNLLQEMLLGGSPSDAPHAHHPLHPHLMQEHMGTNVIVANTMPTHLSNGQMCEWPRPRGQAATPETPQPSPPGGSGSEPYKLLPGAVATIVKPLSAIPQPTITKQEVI
As to the kind of experiment: protein-binding microarray. The settings on record: COS-7 nuclear extract on double-stranded Agilent 4x180k PBM; binding buffer, salt, pH and temperature not given; high values mean tight binding; double strand, one strand shown; sequences stand for … in …GCCTAGGGAGATTAGAGTATCGGTCGA
Turning to AGGTTTGATTTCAGCATGTTTAAATGCTGA, the binding signal (log2 normalized intensity) amounted to 1.28.
As to TTGCACTGCAAAGAAGTCAAACTTTGGACC, the binding signal (log2 normalized intensity) amounted to 6.36.
To TTCTGCTGCATTCTATTGGTCAAAGTAAAT belongs 0.511.
The result for AGGAATTTTAAAAGTATACTATATTTGTCC reads -0.378.
To ATGTTTGCCGACCTCCTGACTAAAGTTCAT belongs 2.65.
Regarding ATCAGTATCCCAGTTCTGGATACTGATTAC, the binding signal (log2 normalized intensity) is -1.02.
To AGGGATCTTTGCACTTGATGTTCCCCCTCC belongs 4.32; to GGGCAAGAAAGGGGTCAGCAAAAATAGCCA, -1.17.
The result for CCTTGCCTTAAGAGCAGTCTGCTCAAGTCT reads -1.05; that for TGGCACACAGAGGACGTCAGGCAGAGAGGG, -1.25; that for CTGATGGCTGCTTCACACAAACATCACCTA, -0.966.
Consider CGGGTCACGTGCCGCTGCGGGTCACGTGTC, for which the binding signal (log2 normalized intensity) was determined as 1.44.
To AGCATCCCTCGGGCCGGGAAACGCCCTCGG belongs 0.417; to GTAAGTATGCTCACTGACCTCTGCCCTACT, 4.35; to ACTACCCCTGCCTAAACAAGGCAGACTTGG, -0.64.
To AACTTCCTCCTCCTTGGCTCTCCCCACTTA belongs 2.75; to CCTCCAACTATGCTAAGAATGCGAACCATT, -1.08.
The result for GCGCGGGGCGCCTCCCGGAGGACCCGACCG reads -1.15; that for GACTTGACAAAGGTCATTCATGTGCAGGTT, 3.04.
On to AAGGAATTTACTGCAGTCAGGGGTTAGGCC, for which the binding signal (log2 normalized intensity) stood at 0.068.
With CCCAAATGCAAACAGCAGCCACATTCCATG, the binding signal (log2 normalized intensity) was -1.1.
To AAGGTCAGCAAGCCTGGAGTTCTGATGTTC belongs 0.534.
To CTGGTGATCTTTGTTAGACCCTTATCAGTA belongs 1.82; to AATAATCTGGCATAGGAACAAAGGTTGGTG, 2.24.
To CAGTGGAATCTACAGAATTCTCATGGAGGA belongs -0.206; to ACAGTTCTGATACATTGGACAACTGTACTT, 2.1.
Turning to TTTCTGTCCAGAGTTTAAATGACCTCTGCC, the binding signal (log2 normalized intensity) worked out at 3.88.
The result for CATTTTTGACCTTCAGCATCTTCAACTGTG reads 3.
As to GTTCAGCGCGTCTTAGCACTCACCCAATAA, the binding signal (log2 normalized intensity) is -0.875.
As for TATGCTGGCAGTAGGGAGGTTTGGGGTTAT, the binding signal (log2 normalized intensity) stood at 0.621.
For CTTCTCTTGTTTGTGTAACTGTGGGTTCTA, the binding signal (log2 normalized intensity) worked out at 1.97.
To ACCATTAGGGGGCAATTTCCCTGGTCGACC belongs 1.54.
To GTGACTTGATCTTTGACTGGATTCTCAGCC belongs 0.789.
The result for ATAGGTCAGAGGACACCCGGGGTGGGCATT reads 0.737; that for ACTGAATCACACTACTGGCTTTTCTGGTTC, -1.02.
With GAATTGTGATAATAAATGTGTTTCATCAGT, the binding signal (log2 normalized intensity) was 1.47.
To GGTTGCACTCTGGTGCCCTCTGAGTGTTTG belongs 1.88; to AGGCAAGAGCTCAGAAGCCACCAGTGCAAA, -1.17.
The result for GCTTCAAAGGTCACTGTCCTAATTTTTTTT reads 2.39; that for TCAGTGGGCTAAACATCAAGACAGGTGAGA, -1.08.
Take ATTGACTCTTCGTTTTCTTTTTAGTTTACA: the binding signal (log2 normalized intensity) worked out at 0.888.
As to ATGCTTCAAATATTTGGATAATGTGCCCTT, the binding signal (log2 normalized intensity) turned out to be 3.48.
The result for GGTGCTGATGTTAACACAAGTTATTACCGT reads 1.03; that for CTAACCCAAATGCAAATACCTATAGACCTG, -1.12.
CTTATCAGCCCCCATGTCAGGGAAGGTGCC: the binding signal (log2 normalized intensity) is 2.52.
Take AGGTGACCTTTGCTCCGGTTCCCAATAAGT: the binding signal (log2 normalized intensity) amounted to 5.06.
TAAACATTCCCCTTTGTCTAAGCTAGTCAT: the binding signal (log2 normalized intensity) is 0.296.
To GACAGCCACACTTTAATGTGGAGTAGACTA belongs -0.927.
To CCCGGAGCGGAGCATCCCTCGGGCCGGGAA belongs -0.949.
Take CTGCTTCAGTTTTGCCATCAGCTCCCTCCC: the binding signal (log2 normalized intensity) is 3.05.
To AAATTGTGATAACCCCTATGTCTTCAGACT belongs 1.65.
To GGAAAATTACCAATGAGAAACCTCAAAGGT belongs -1.04; to TGTGTCTGTTTACCCACTTGGGGTTCTTGG, 1.71.
Consider GTTCCAGTTATGTTCTCTGTACGGAAGGCC, for which the binding signal (log2 normalized intensity) was 0.823.
To AATCTTATTTTTACTATGTGGCATTTAGAA belongs 1.56; to AGCATAGAAGTAAGAAATCAGGAGCAAAGG, -0.804.
To CTTACGAAGATAAATCAGAAGAAAAAGGTA belongs -1.07.
On to GGAGATAAAGCAGAGGGCTGCTTGCAGGAG, for which the binding signal (log2 normalized intensity) was -1.12.
With GACATAACACAGGTGACCTTTGCTCCGGTT, the binding signal (log2 normalized intensity) was determined as 7.4.
To GATAAGCGTATTTCAACCTTTGATCTATAA belongs 5.94; to GAATTTTTCCCCTAGTTACAACTGTAAACA, 1.21.
The result for GCCTGGGCGCGCCTGCCCTTCGCTCCCCGA reads 1.93; that for CACCTCTGCTTATCTCAACTGATTTACCTC, 0.784; that for AGAGGCTCCAGAAGGAATGCAGCCCTGTTG, -1.01.
The result for GGCAGGCTTCGAAAAATGGGTCTGGGATGT reads 0.813; that for TGAGTATGAGTAGGCTGTAGAGGAGATGTG, 1.21.
ATATTCTGAGACAACACTCAGGATACCTAA: the binding signal (log2 normalized intensity) was -1.14.
To CTTTATCCAAATAACCATGCTCAACATCAA belongs -0.712.
Take CACTGCTTTGAAAAAACCTGTTCAGCCAGA: the binding signal (log2 normalized intensity) was -1.23.
To ATGGAGTGCTCTGAACCGTGTACCTGGGGC belongs 0.442; to AGCTGTGCGCTTAGTCCATGACGCAAGCGA, -1.14; to TCTCAGCCGCGCGGCTTCAGAGGCCAGCAG, -1.17.
